Experimental data reported in patent publication US20240076343A1 (CEPHALON, published 2024).

B1: 1H3-hIgG1-L6-hCD25(1-164)-L20-hIL-2 (D20F) (other)
heavy: EVQLVESGGGLVQPGRSLKLSCAVSGFTFSDYAMAWVRQAPKKGLEWVATISYDGSRTYYRDSVKGRFTISRDNAKITLYLQMDSLRSEDTATYYCARHGSGYFDYWGQGVMVTVSS[not shown - human IgG1 constant region]SGGGGSELCDDDPPEIPHATFKAMAYKEGTMLNCECKRGFRRIKSGSLYMLCTGNSSHSSWDNQCQCTSSATRNTTKQVTPQPEEQKERKTTEMQSPMQPVDQASLPGHCREPPPWENEATERIYHFVVGQMVYYQCVQGYRALHRGPAESVCKMTHGKTRWTQPQLICTSGGGGSGGGGSGGGGSGGGS[not shown - about 150 residues]
light: DTVLTQSPALAVSPGERVTISCRASESVRTGVHWYQQKPGQQPKLLIYGASNLESGVPARFSGSGSGTDFTLTIDPVEADDTATYFCQQSWNDPFTFGSGTKLEIKRTVAAPSVFIFPPSDEQLKSGTASVVCLLNNFYPREAKVQWKVDNALQSGNSQESVTEQDSKDSTYSLSSTLTLSKADYEKHKVYACEVTHQGLSSPVTKSFNRGEC
B2: 1H3-hIgG1-L6-hCD25(1-164)-L20-hIL-2 (D20S) (other)
heavy: EVQLVESGGGLVQPGRSLKLSCAVSGFTFSDYAMAWVRQAPKKGLEWVATISYDGSRTYYRDSVKGRFTISRDNAKITLYLQMDSLRSEDTATYYCARHGSGYFDYWGQGVMVTVSS[not shown - human IgG1 constant region]SGGGGSELCDDDPPEIPHATFKAMAYKEGTMLNCECKRGFRRIKSGSLYMLCTGNSSHSSWDNQCQCTSSATRNTTKQVTPQPEEQKERKTTEMQSPMQPVDQASLPGHCREPPPWENEATERIYHFVVGQMVYYQCVQGYRALHRGPAESVCKMTHGKTRWTQPQLICTSGGGGSGGGGSGGGGSGGGS[not shown - about 150 residues]
light: B1 light
B3: 1H3-hIgG1-L6-hCD25(1-164)-L20-hIL-2 (E15A) (other)
heavy: EVQLVESGGGLVQPGRSLKLSCAVSGFTFSDYAMAWVRQAPKKGLEWVATISYDGSRTYYRDSVKGRFTISRDNAKITLYLQMDSLRSEDTATYYCARHGSGYFDYWGQGVMVTVSS[not shown - human IgG1 constant region]SGGGGSELCDDDPPEIPHATFKAMAYKEGTMLNCECKRGFRRIKSGSLYMLCTGNSSHSSWDNQCQCTSSATRNTTKQVTPQPEEQKERKTTEMQSPMQPVDQASLPGHCREPPPWENEATERIYHFVVGQMVYYQCVQGYRALHRGPAESVCKMTHGKTRWTQPQLICTSGGGGSGGGGSGGGGSGGGS[not shown - about 150 residues]
light: B1 light
B4: 1H3-hIgG1-L6-hCD25(1-164)-L20-hIL-2 (D20I) (other)
heavy: EVQLVESGGGLVQPGRSLKLSCAVSGFTFSDYAMAWVRQAPKKGLEWVATISYDGSRTYYRDSVKGRFTISRDNAKITLYLQMDSLRSEDTATYYCARHGSGYFDYWGQGVMVTVSS[not shown - human IgG1 constant region]SGGGGSELCDDDPPEIPHATFKAMAYKEGTMLNCECKRGFRRIKSGSLYMLCTGNSSHSSWDNQCQCTSSATRNTTKQVTPQPEEQKERKTTEMQSPMQPVDQASLPGHCREPPPWENEATERIYHFVVGQMVYYQCVQGYRALHRGPAESVCKMTHGKTRWTQPQLICTSGGGGSGGGGSGGGGSGGGS[not shown - about 150 residues]
light: B1 light
B5: 1H3-hIgG1-L6-hCD25(1-164)-L20-hIL-2 (D20S) (other)
heavy: EVQLVESGGGLVQPGRSLKLSCAVSGFTFSDYAMAWVRQAPKKGLEWVATISYDGSRTYYRDSVKGRFTISRDNAKITLYLQMDSLRSEDTATYYCARHGSGYFDYWGQGVMVTVSS[not shown - human IgG1 constant region]SGGGGSELCDDDPPEIPHATFKAMAYKEGTMLNCECKRGFRRIKSGSLYMLCTGNSSHSSWDNQCQCTSSATRNTTKQVTPQPEEQKERKTTEMQSPMQPVDQASLPGHCREPPPWENEATERIYHFVVGQMVYYQCVQGYRALHRGPAESVCKMTHGKTRWTQPQLICTSGGGGSGGGGSGGGGSGGGS[not shown - about 150 residues]
light: B1 light
B6: 1H3-hIgG1-L6-hCD25(1-164)-L20-hIL-2 (D20H) (other)
heavy: EVQLVESGGGLVQPGRSLKLSCAVSGFTFSDYAMAWVRQAPKKGLEWVATISYDGSRTYYRDSVKGRFTISRDNAKITLYLQMDSLRSEDTATYYCARHGSGYFDYWGQGVMVTVSS[not shown - human IgG1 constant region]SGGGGSELCDDDPPEIPHATFKAMAYKEGTMLNCECKRGFRRIKSGSLYMLCTGNSSHSSWDNQCQCTSSATRNTTKQVTPQPEEQKERKTTEMQSPMQPVDQASLPGHCREPPPWENEATERIYHFVVGQMVYYQCVQGYRALHRGPAESVCKMTHGKTRWTQPQLICTSGGGGSGGGGSGGGGSGGGS[not shown - about 150 residues]
light: B1 light
B7: 1H3-hIgG1-L6-hCD25(1-164)-L20-hIL-2 (D20W) (other)
heavy: EVQLVESGGGLVQPGRSLKLSCAVSGFTFSDYAMAWVRQAPKKGLEWVATISYDGSRTYYRDSVKGRFTISRDNAKITLYLQMDSLRSEDTATYYCARHGSGYFDYWGQGVMVTVSS[not shown - human IgG1 constant region]SGGGGSELCDDDPPEIPHATFKAMAYKEGTMLNCECKRGFRRIKSGSLYMLCTGNSSHSSWDNQCQCTSSATRNTTKQVTPQPEEQKERKTTEMQSPMQPVDQASLPGHCREPPPWENEATERIYHFVVGQMVYYQCVQGYRALHRGPAESVCKMTHGKTRWTQPQLICTSGGGGSGGGGSGGGGSGGGS[not shown - about 150 residues]
light: B1 light

Biological target: T1, high-affinity hIL-2 receptor (IL-2Rαβγ) on NK-92 cells (human, UniProt P01589 22-272; P14784 27-551; P31785 23-369)
T1 sequence 1: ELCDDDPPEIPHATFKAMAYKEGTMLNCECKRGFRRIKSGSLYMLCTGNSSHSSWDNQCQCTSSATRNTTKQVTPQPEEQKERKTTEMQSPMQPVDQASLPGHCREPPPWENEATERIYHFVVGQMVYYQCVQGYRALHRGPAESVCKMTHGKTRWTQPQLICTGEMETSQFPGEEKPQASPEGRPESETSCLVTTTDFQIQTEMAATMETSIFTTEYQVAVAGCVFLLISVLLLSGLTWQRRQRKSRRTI
T1 sequence 2: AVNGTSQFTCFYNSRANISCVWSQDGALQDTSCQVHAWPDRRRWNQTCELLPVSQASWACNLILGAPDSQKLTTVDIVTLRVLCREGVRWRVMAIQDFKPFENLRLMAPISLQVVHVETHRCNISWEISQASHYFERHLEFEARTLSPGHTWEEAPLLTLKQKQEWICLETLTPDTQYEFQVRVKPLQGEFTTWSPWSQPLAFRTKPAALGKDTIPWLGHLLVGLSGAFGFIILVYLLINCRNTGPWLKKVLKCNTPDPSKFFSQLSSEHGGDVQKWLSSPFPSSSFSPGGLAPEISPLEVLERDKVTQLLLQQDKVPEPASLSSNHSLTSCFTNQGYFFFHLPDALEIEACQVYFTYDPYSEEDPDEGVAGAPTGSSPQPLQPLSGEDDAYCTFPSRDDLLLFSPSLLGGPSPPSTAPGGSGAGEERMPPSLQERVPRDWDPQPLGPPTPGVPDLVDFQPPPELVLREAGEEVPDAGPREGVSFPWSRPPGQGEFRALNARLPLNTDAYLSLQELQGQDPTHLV
T1 sequence 3: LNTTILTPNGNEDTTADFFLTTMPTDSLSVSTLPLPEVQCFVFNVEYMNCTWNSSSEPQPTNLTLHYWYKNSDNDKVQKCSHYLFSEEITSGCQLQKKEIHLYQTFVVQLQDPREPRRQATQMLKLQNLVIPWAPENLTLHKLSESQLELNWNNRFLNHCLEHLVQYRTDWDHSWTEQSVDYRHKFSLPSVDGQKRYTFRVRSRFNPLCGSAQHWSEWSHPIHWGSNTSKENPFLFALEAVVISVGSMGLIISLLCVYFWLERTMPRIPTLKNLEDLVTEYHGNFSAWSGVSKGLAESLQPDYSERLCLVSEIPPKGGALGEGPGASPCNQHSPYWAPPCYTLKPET
Assay: cell-based or functional assay

B1 was tested, and the “Fold change from hIL-2 (NK-92)” value was 23 fold.

Biological target: T2, intermediate affinity hIL-2 receptor complex (IL-2Rβγ) on TF1+IL-2Rβ cells (human, UniProt P14784 27-551; P31785 23-369)
T2 sequence 1: T1 sequence 2
T2 sequence 2: T1 sequence 3
Assay: cell-based or functional assay

In order of falling “Fold change from hIL-2 (TF1 + IL-2Rβ)” value:
1. B1  18 fold
2. B2  14 fold

Biological target: T3, high-affinity hIL-2 receptor (IL-2Rαβγ) (human, UniProt P01589 22-272; P14784 27-551; P31785 23-369)
T3 sequence 1: T1 sequence 1
T3 sequence 2: T1 sequence 2
T3 sequence 3: T1 sequence 3
Assay: cell-based or functional assay

First: B3
Second: B4
The “Fold change from rhIL-2 (NK-92), pSTAT5 titration” value of the first is lower: 184 fold for the first, over 10000 fold for the second.

Going from B5 to B6, the “Fold change from rhIL-2 (NK-92), pSTAT5 titration” value rises from 2400 fold to over 10000 fold.

B7 was tested, and the “Fold change from rhIL-2 (NK-92), pSTAT5 titration” value was over 10000 fold.

Biological target: T4, intermediate affinity hIL-2 receptor complex (IL-2Rβγ) (human, UniProt P14784 27-551; P31785 23-369)
T4 sequence 1: T1 sequence 2
T4 sequence 2: T1 sequence 3
Assay: cell-based or functional assay

Going from B3 to B4, the “Fold change from rhIL-2 (TF1 + IL-2Rβ), pSTAT5 titration” value (shortened to “Fold change from rhIL-2 (TF1 + IL-2Rβ)”) rises from 20 fold to over 10000 fold.

B5 and B6 cannot be ordered by “Fold change from rhIL-2 (TF1 + IL-2Rβ)” value: over 10000 fold for the first, over 10000 fold for the second.

With B7 the “Fold change from rhIL-2 (TF1 + IL-2Rβ)” value was over 10000 fold.
